Laboratory results reported in the supplement of paper PMC11741623.
This is one part of the list. Interaction screen of human proteins with wild-type SARS-CoV-2 proteins by split-DHFR complementation in yeast, 1 µg/mL methotrexate. Value = fitness of the pair (three or more lineages) minus that of the viral protein without a human partner, on a scale set by negative (0) and fused positive (1) controls, mean of up to three cultures; higher = more likely to interact. Active = false discovery rate below 0.05 (one-sided t-test) in at least one culture. Nearly all pairs are not hits, and differences among them are mostly noise (correlation between cultures about 0.3); most hits were seen in one culture only. Human sequences are the Swiss-Prot entries looked up by gene name; the clone may be another isoform. NSP2 values were corrected by the authors for a growth advantage. Listed are human proteins with a hit and a random twelfth of the others.

B1: PAIP2, Q9BPZ3 (protein)
chain: MKDPSRSSTSPSIINEDVIINGHSHEDDNPFAEYMWMENEEEFNRQIEEELWEEEFIERCFQEMLEEEEEHEWFIPARDLPQTMDQIQDQFNDLVISDGSSLEDLVVKSNLNPNAKEFVPGVKYGNI
B2: MPP2, Q14168 (protein)
chain: MPVAATNSETAMQQVLDNLGSLPSATGAAELDLIFLRGIMESPIVRSLAKVIMVLWFMQQNVFVPMKYMLKYFGAHERLEETKLEAVRDNNLELVQEILRDLAHVAEQSSTAAELAHILQEPHFQSLLETHDSVASKTYETPPPSPGLDPTFSNQPVPPDAVRMVGIRKTAGEHLGVTFRVEGGELVIARILHGGMVAQQGLLHVGDIIKEVNGQPVGSDPRALQELLRNASGSVILKILPSYQEPHLPRQVFVKCHFDYDPARDSLIPCKEAGLRFNAGDLLQIVNQDDANWWQACHVEGGSAGLIPSQLLEEKRKAFVKRDLELTPNSGTLCGSLSGKKKKRMMYLTTKNAEFDRHELLIYEEVARMPPFRRKTLVLIGAQGVGRRSLKNKLIMWDPDRYGTTVPYTSRRPKDSEREGQGYSFVSRGEMEADVRAGRYLEHGEYEGNLYGTRIDSIRGVVAAGKVCVLDVNPQAVKVLRTAEFVPYVVFIEAPDFETLRAMNRAALESGISTKQLTEADLRRTVEESSRIQRGYGHYFDLCLVNSNLERTFRELQTAMEKLRTEPQWVPVSWVY
B3: RFTN1, Q14699 (protein)
chain: MGCGLNKLEKRDEKRPGNIYSTLKRPQVETKIDVSYEYRFLEFTTLSAAELPGSSAVRLASLRDLPAQLLELYQQGFSLAALHPFVQPTHEREKTPLEHIFRAILIKKTDRSQKTDLHNEGYILELDCCSSLDHPTDQKLIPEFIKKIQEAASQGLKFVGVIPQYHSSVNSAGSSAPVSTANSTEDARDAKNARGDHASLENEKPGTGDVCSAPAGRNQSPEPSSGPRGEVPLAKQPSSPSGEGDGGELSPQGVSKTLDGPESNPLEVHEEPLSGKMEIFTLFNKPKSHQKCRQYYPVTIPLHVSKNGQTVSGLDANWLEHMSDHFRKGGMLVNAVFYLGIVNDSLHGLTDGVFIFEAVSTEDSKTIQGYDAIVVEQWTVLEGVEVQTDYVPLLNSLAAYGWQLTCVLPTPVVKTTSEGSVSTKQIVFLQRPCLPQKIKKKESKFQWRFSREEMHNRQMRKSKGKLSARDKQQAEENEKNLEDQSSKAGDMGNCVSGQQQEGGVSEEMKGPVQEDKGEQLSPGGLLCGVGVEGEAVQNGPASHSRALVGICTGHSNPGEDARDGDAEEVRELGTVEEN
B4: IRF9, Q00978 (protein)
chain: MASGRARCTRKLRNWVVEQVESGQFPGVCWDDTAKTMFRIPWKHAGKQDFREDQDAAFFKAWAIFKGKYKEGDTGGPAVWKTRLRCALNKSSEFKEVPERGRMDVAEPYKVYQLLPPGIVSGQPGTQKVPSKRQHSSVSSERKEEEDAMQNCTLSPSVLQDSLNNEEEGASGGAVHSDIGSSSSSSSPEPQEVTDTTEAPFQGDQRSLEFLLPPEPDYSLLLTFIYNGRVVGEAQVQSLDCRLVAEPSGSESSMEQVLFPKPGPLEPTQRLLSQLERGILVASNPRGLFVQRLCPIPISWNAPQAPPGPGPHLLPSNECVELFRTAYFCRDLVRYFQGLGPPPKFQVTLNFWEESHGSSHTPQNLITVKMEQAFARYLLEQTPEQQAAILSLV

molecular target: SARS-CoV-2 E; experiment: yeast fitness gain over the viral ORF with no human partner (scaled fitness); higher = more likely to interact
Protocol: (§1)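 Split mouse DHFR complementation in pooled diploid yeast: human ORFeome clones carry one fragment and viral ORFs the other; barcoded lineages compete in 1 µg/mL methotrexate and fitness is read by barcode sequencing in up to three cultures.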

Binder	yeast fitness gain
B1	inactive: -0.0474
B2	inactive: -0.0885
B3	inactive: -0.2
B4	inactive: -0.215

molecular target: SARS-CoV-2 M; experiment: as above
Protocol: as §1

Binder	yeast fitness gain
B1	inactive: 0.0873
B2	inactive: -0.0145
B3	inactive: 0.0394
B4	inactive: 0.0443

molecular target: SARS-CoV-2 N; experiment: as above
Protocol: as §1

Binder	yeast fitness gain
B1	inactive: 0.137
B2	inactive: 0.0498
B3	inactive: 0.158

molecular target: SARS-CoV-2 NSP1; experiment: as above
Protocol: as §1

Binder	yeast fitness gain
B1	inactive: -0.109
B2	inactive: 0.0288
B3	inactive: 0.0448
B4	inactive: -0.094

molecular target: SARS-CoV-2 NSP10; experiment: as above
Protocol: as §1

Binder	yeast fitness gain
B1	inactive: 0.0888
B2	inactive: 0.0222
B3	inactive: 0.0711
B4	inactive: 0.0527

molecular target: SARS-CoV-2 NSP12; experiment: as above
Protocol: as §1

Binder	yeast fitness gain
B1	inactive: 0.0567
B2	inactive: 0.0904
B3	inactive: -0.00221
B4	inactive: 0.0649

molecular target: SARS-CoV-2 NSP13; experiment: as above
Protocol: as §1

Binder	yeast fitness gain
B1	inactive: 0.0745
B2	inactive: 0.0586
B3	inactive: 0.0472
B4	inactive: 0.0561

molecular target: SARS-CoV-2 NSP14; experiment: as above
Protocol: as §1

Binder	yeast fitness gain
B1	inactive: -0.0448

molecular target: SARS-CoV-2 NSP15; experiment: as above
Protocol: as §1

Binder	yeast fitness gain
B1	inactive: 0.000832
B3	inactive: -0.0492
B4	inactive: -0.0158

molecular target: SARS-CoV-2 NSP16; experiment: as above
Protocol: as §1

Binder	yeast fitness gain
B1	inactive: -0.0113
B2	inactive: 0.0188
B3	inactive: 0.0405
B4	inactive: -0.177

molecular target: SARS-CoV-2 NSP2; experiment: as above
Protocol: as §1

Binder	yeast fitness gain
B1	active: 0.405
B2	inactive: -0.297
B3	active: 0.334
B4	inactive: -0.138

molecular target: SARS-CoV-2 NSP4; experiment: as above
Protocol: as §1

Binder	yeast fitness gain
B1	inactive: 0.0664

molecular target: SARS-CoV-2 NSP5; experiment: as above
Protocol: as §1

Binder	yeast fitness gain
B1	inactive: 0.0258
B2	inactive: -0.0281
B3	inactive: 0.00123
B4	inactive: -0.00606

molecular target: SARS-CoV-2 NSP6; experiment: as above
Protocol: as §1

Binder	yeast fitness gain
B1	inactive: 0.0239
B2	inactive: 0.00742
B3	inactive: -0.0239
B4	inactive: -0.278

molecular target: SARS-CoV-2 NSP7; experiment: as above
Protocol: as §1

Binder	yeast fitness gain
B1	inactive: 0.076
B2	inactive: -0.00528
B4	inactive: 0.0359

molecular target: SARS-CoV-2 NSP8; experiment: as above
Protocol: as §1

Binder	yeast fitness gain
B1	inactive: -0.0217
B2	inactive: 0.0474
B3	inactive: -0.0886

molecular target: SARS-CoV-2 NSP9; experiment: as above
Protocol: as §1

Binder	yeast fitness gain
B1	inactive: 0.0104
B2	inactive: -0.0995
B3	inactive: -0.0303
B4	inactive: -0.0165

molecular target: SARS-CoV-2 ORF10; experiment: as above
Protocol: as §1

Binder	yeast fitness gain
B1	inactive: 0.0367
B2	inactive: 0.0115
B3	inactive: -0.0415
B4	inactive: -0.0263

molecular target: SARS-CoV-2 ORF3A; experiment: as above
Protocol: as §1

Binder	yeast fitness gain
B1	inactive: 0.0538
B2	inactive: -0.227
B3	inactive: 0.0214
B4	inactive: -0.0604

molecular target: SARS-CoV-2 ORF3B; experiment: as above
Protocol: as §1

Binder	yeast fitness gain
B1	inactive: 0.068
B2	inactive: -0.00924
B3	inactive: -0.0401
B4	inactive: -0.0758

molecular target: SARS-CoV-2 ORF6; experiment: as above
Protocol: as §1

Binder	yeast fitness gain
B1	inactive: -0.0672
B2	inactive: 0.023
B3	inactive: 0.0324
B4	inactive: -0.00482

molecular target: SARS-CoV-2 ORF7A; experiment: as above
Protocol: as §1

Binder	yeast fitness gain
B1	inactive: -0.0277
B2	inactive: 0.035
B3	inactive: 0.0782
B4	inactive: -0.205

molecular target: SARS-CoV-2 ORF7B; experiment: as above
Protocol: as §1

Binder	yeast fitness gain
B1	inactive: 0.0543
B2	inactive: -0.0779
B3	inactive: 0.000546
B4	inactive: 0.04

molecular target: SARS-CoV-2 ORF8; experiment: as above
Protocol: as §1

Binder	yeast fitness gain
B1	inactive: 0.0137
B2	inactive: 0.0581
B3	inactive: 0.0141
B4	inactive: -0.18

molecular target: SARS-CoV-2 ORF9B; experiment: as above
Protocol: as §1

Binder	yeast fitness gain
B1	inactive: 0.0252
B2	inactive: -0.0226
B3	inactive: 0.00215
B4	inactive: -0.0725

molecular target: SARS-CoV-2 ORF9Bwu (the 73-codon ORF); experiment: as above
Protocol: as §1

Binder	yeast fitness gain
B1	inactive: 0.0147
B2	inactive: 0.065
B3	inactive: 0.051
B4	inactive: 0.115

molecular target: SARS-CoV-2 S; experiment: as above
Protocol: as §1

Binder	yeast fitness gain
B1	inactive: 0.0506
B2	inactive: -0.0854
B3	inactive: 0.0351
B4	inactive: 0.0336
